Assay results published in PubChem BioAssay AID894 (National Center for Advancing Translational Sciences (NCATS), 2007).
Screen size: about 150,000 compounds; about 6,500 (4.3%) were called active. The inconclusive results got no clear call from the source; some entries with a clear call stand among them for comparison. The call rests on the fitted dose curve; in most records, active means well fitted inhibition curve with a large enough effect (not every such curve was filed as active); inconclusive means small, poorly fitted or top-dose-only effect, or another doubt; inactive means no such curve, though single readings can be large or run the other way. Potencies of inconclusive entries are left out as doubtful fits.

Each molecule was assayed against 15-hydroxyprostaglandin dehydrogenase [NAD(+)] (Homo sapiens) (UniProt P15428) (assay: qHTS Assay for Inhibitors of HPGD (15-Hydroxyprostaglandin Dehydrogenase)). Details: purified HPGD, NADH fluorescence kinetic, PGE2 substrate; activity change, negative = inhibition: active compounds read low.
Procedure, shortened: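 NADH formation kinetics: reaction with 30 uM PGE2 and 1 mM NAD+ (final), 20 nM enzyme, Tris-HCl pH 8 with Tween 20, after 15 min compound preincubation at room temperature. Fluorescence change, last versus first of five reads.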
On the % scale 0 is the no-effect control and ±100 the full control effect; potency means the concentration at half of the fitted maximal effect; tags describe the fitted curve by direction and shape.

Sequence of UniProt P15428 (P15428 whole entry, looked up): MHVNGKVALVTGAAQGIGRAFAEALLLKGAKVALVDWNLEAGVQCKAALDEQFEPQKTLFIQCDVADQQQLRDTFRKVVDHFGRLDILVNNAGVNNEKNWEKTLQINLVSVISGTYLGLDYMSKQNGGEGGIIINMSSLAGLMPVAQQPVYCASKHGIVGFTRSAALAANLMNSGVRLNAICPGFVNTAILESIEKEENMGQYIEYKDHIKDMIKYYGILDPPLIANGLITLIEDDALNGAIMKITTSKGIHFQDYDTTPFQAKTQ

Row | Compound | Potency | activity change, negative = inhibition
1 | c1ccc2c(c1)nc(CN1CCOCC1)n1c3ccccc3nc21 | inconclusive [inhibitor, single point] | 
2 | CC(C)Cc1[nH]c(=O)c(C#N)c2c1COC(C)(C)C2 | inconclusive [inhibitor, single point] | 
3 | O=C(C1CCN(S(=O)(=O)N2CCC3(CC2)OCCO3)CC1)N1CCCCC1 | active: 15.8 µM | 
4 | Cc1c(C(=O)O)cccc1-c1ccc(C=O)o1 | inconclusive [inhibitor, partial curve] | 
5 | C=CCn1c(COc2ccc(Cl)cc2)nnc1SCC(=O)Nc1ccc(S(N)(=O)=O)cc1 |  | inactive: -9.66%
6 | COc1ccc2cnoc(=O)c2c1OC | inconclusive [inhibitor, partial curve] | 
7 | CCOc1ccc(N2C(=O)C3C(c4ccccc4F)NN(C(=O)c4ccc(C)cc4)C3C2=O)cc1 (centres undefined) |  | inactive: -22.8%
8 | Cc1cc(C(=S)N2CCOCC2)c(C)n1-c1ccc(Cl)cc1 | active: 28.2 µM | 
9 | COc1ccc(NC(=S)NC2CCS(=O)(=O)C2)cc1 (centres undefined) |  | inactive: -7.38%
10 | Cc1c2cccc(Sc3ccccc3)c2c2c3c(cccc13)[S+](c1ccccc1)C2 (centres undefined) |  | inactive: -8.47%
11 | O=C(Nc1ccc(-c2nc3cccnc3s2)cc1)C1CCCO1 (centres undefined) | inconclusive [inhibitor, partial curve] | 
12 | COc1cc(C)c(C(=O)Oc2cc(C)c(C(=O)O)c(O)c2C)c(OC)c1C | inconclusive [inhibitor, partial curve] | 
13 | O=C1c2ccccc2C(=O)N1Cc1ccco1 |  | inactive: -5.93%
14 | CCOc1ccccc1C=Nc1ccccc1C(=O)Nc1ccccc1 | inconclusive [inhibitor, partial curve] | 
15 | COc1cc(OC)c(NC(=O)CCc2nc(-c3ccc(C)cc3)no2)cc1Cl | inconclusive [inhibitor, partial curve, poor fit] | 
16 | COc1cc(/C=C\c2ccc(OC)cc2OC)cc(OC)c1 | inconclusive [inhibitor, partial curve] | 
17 | COC(=O)n1c(=S)oc2cc(Cl)ccc21 | active: 22.4 µM | 
18 | O=C(Nc1cccc(F)c1)N1CC[C@@]2(CCCN(C(=O)c3ccco3)C2)C1 |  | inactive: 4.73%
19 | O=C(CCCN1C(=O)/C(=C/c2ccccc2Cl)SC1=S)Nc1ccccn1 | active: 15.8 µM | 
20 | Nc1c(C(=O)NCc2ccco2)c2nc3ccccc3nc2n1CCc1ccccc1F | inconclusive [inhibitor, partial curve] | 
21 | COCCNC(=O)c1cc2c(=O)n3cccc(C)c3nc2n(Cc2ccncc2)c1=N | inconclusive [inhibitor, partial curve] | 
22 | COc1ccc(-n2c(SCC(=O)NCCC(C)C)nc3ccsc3c2=O)cc1 | inconclusive [inhibitor, partial curve] | 
23 | Cc1ccc(C)c(/C(O)=C2\C(=O)C(=O)N(Cc3cccnc3)C2c2cccnc2)c1 (centres undefined) | active: 25.1 µM | 
24 | CS(=O)(=O)c1ccc2nc(NC(=O)c3cc4ccccc4o3)sc2c1 | inconclusive [inhibitor, single point] | 
25 | COC(=O)c1ccc(N/C(C)=C/C(=O)c2ccc(C)o2)cc1 |  | inactive: -15.9%

Row | Compound | Potency | activity change, negative = inhibition
26 | O=C(CCOc1ccccc1)OCC(=O)c1cc2ccccc2o1 | active: 31.6 µM | 
27 | CCOc1ccccc1NC1=C(Cl)C(=O)N(Cc2ccccc2)C1=O |  | inactive: -15.2%
28 | CSc1ncc(Cl)c(C(=O)C(C#N)c2nc3c(C)cc(C)cc3c(=O)[nH]2)n1 (centres undefined) | active: 25.1 µM | 
29 | Cc1cc(=O)c2n(Cc3ccccc3Cl)nc[n+]2[nH]1 | active: 20 µM | 
30 | O=c1[nH]c2ccccc2cc1-c1noc(-c2cccnc2)n1 | inconclusive [inhibitor, single point] | 
31 | O=C1CC(N2CCN(c3ccccc3Cl)CC2)C(=O)N1c1cccc(F)c1 (centres undefined) |  | inactive: -11.2%
32 | N#C/C(=N\Nc1cc(Cl)cc(Cl)c1)c1nnc2n1CCCCC2 | active: 25.1 µM | 
33 | C=CCn1c(CCn2c3ccccc3c3ccccc32)n[nH]c1=S | inconclusive [inhibitor, partial curve] | 
34 | CC1CCN(C(=O)COC(=O)c2n[nH]c3ccccc23)CC1 | inconclusive [inhibitor, partial curve, poor fit] | 
35 | CCC1CCc2c(sc3ncnc(N4CCOCC4)c23)C1 (centres undefined) |  | inactive: -27.4%
36 | CCOc1ccc2nc(NCCCNS(=O)(=O)c3ccccc3)c(C#N)cc2c1 | inconclusive [inhibitor, single point] | 
37 | COc1ccccc1CCNC(=O)CCn1c(=O)oc2ccccc21 | inconclusive [inhibitor, single point] | 
38 | O=C(Nc1ccc(-c2csc(-c3ccccc3)n2)cc1)c1ccccc1Cl | inconclusive [inhibitor, partial curve] | 
39 | COc1ccc(Cn2c(C3CC3)nc3ccc(NC(=O)c4ccco4)cc3c2=O)cc1 | inconclusive [inhibitor, single point] | 
40 | COc1ccc(C(=O)CCC(=O)N2CCN(c3ccc(N4CCOCC4)nn3)CC2)cc1 | inconclusive [inhibitor, partial curve, poor fit] | 
41 | O=C(/C=C/c1ccc([N+](=O)[O-])cc1)NCC1CCCO1 (centres undefined) | inconclusive [inhibitor, single point] | 
42 | O=C(CSc1ccc2nnc(-c3ccccn3)n2n1)NCC1CCCO1 (centres undefined) | inconclusive [inhibitor, partial curve] | 
43 | O=C1/C(=C\c2ccc([N+](=O)[O-])cc2)CCc2ccccc21 |  | inactive: -3.12%
44 | O=C1CC(c2ccccc2)Sc2nc(-c3ccccc3)c(-c3ccccc3)n21 (centres undefined) |  | inactive: -14.5%
45 | COc1cc(Nc2ccc(C(=O)O)cc2[N+](=O)[O-])cc(OC)c1 | active: 20 µM | 
46 | Clc1cccc(Cl)c1CSc1nnc(CN2CCOCC2)n1-c1ccccc1 |  | inactive: -5.92%
47 | Cc1cc2c(cc(C(=O)NCCCN3CCOCC3)n2Cc2ccc(Cl)cc2)o1 | active: 12.6 µM | 
48 | Cc1cc(C)n(-c2ccc(C(=O)NCc3cccs3)cc2)n1 | inconclusive [inhibitor, partial curve] | 
49 | Clc1cccc(COn2c(-c3ccc(Cl)cc3Cl)nc3ncccc32)c1 |  | inactive: 5.81%
50 | COc1ccccc1-c1nnc(NC(=O)c2ccc(S(=O)(=O)N(C)Cc3ccccc3)cc2)o1 | inconclusive [inhibitor, single point] | 

Row | Compound | Potency | activity change, negative = inhibition
51 | COC(=O)Cn1c(=NC(=O)c2ccc(OC)c(OC)c2)sc2cc(OC)ccc21 | inconclusive [inhibitor, partial curve] | 
52 | COc1ccc(-c2ccnc3nc(Sc4ncc(C(F)(F)F)cc4Cl)nn23)cc1 | inconclusive [inhibitor, partial curve] | 
53 | O=C(CCNC(=O)Cn1ccc2ccccc2c1=O)NCCc1ccc(Cl)cc1 |  | inactive: -8.78%
54 | CCN(C(=O)c1ccc2c(Cl)c3c(nc2c1)CCC3)c1cccc(C)c1 | active: 12.6 µM | 
55 | COc1ccc(-c2cc(-c3cccs3)nc3sc(C#N)c(N)c23)cc1 | inconclusive [inhibitor, partial curve] | 
56 | Clc1ccccc1-c1nc(-c2ccccc2)n[nH]1 | active: 25.1 µM | 
57 | Cc1c(Cl)cccc1NC(=S)NCCC(C)C |  | inactive: -26.4%
58 | CSc1nc(O)c(/C=C2\C=Nc3ccccc32)[nH]1 | inconclusive [inhibitor, partial curve, poor fit] | 
59 | CCN(CC)c1ccc(C(=O)n2cnc3ccccc32)cc1 | inconclusive [inhibitor, partial curve] | 
60 | CCn1c2ccccc2c2nnc(SCC(=O)N3CC(C)OC(C)C3)nc21 (centres undefined) | active: 14.1 µM | 
61 | O=C(N1CCN(c2ccccc2)CC1)C(F)(F)C(F)(F)F |  | inactive: -7.56%
62 | CCOC(=O)c1ccc(-n2c(O)c(/C=N/NC(=O)C3COc4ccccc4O3)c3ccccc3c2=O)cc1 (centres undefined) | inconclusive [inhibitor, partial curve] | 
63 | Nc1nc(SCC(=O)N2N=C3/C(=C/c4ccco4)CCCC3C2c2ccco2)n[nH]1 (centres undefined) |  | inactive: -4.49%
64 | Cc1cccn2c(=O)c(C=Nc3ccccc3)c(NCCO)nc12 | inconclusive [inhibitor, partial curve] | 
65 | Cc1cc(N2CCN(C/C=C/c3ccccc3)CC2)n2ncnc2n1 | active: 28.2 µM | 
66 | COc1ccc(C2NC(=S)NC(O)(C(F)(F)F)C2C(=O)c2cccs2)cc1 (centres undefined) |  | inactive: 2.02%
67 | O=C(Nc1nnc(-c2ccccc2)s1)c1cc(S(=O)(=O)N2CCOCC2)c(Cl)cc1Cl |  | inactive: -16.7%
68 | CN(C)c1ccnc(Oc2ccc(Cl)cc2)c1C#N | active: 31.6 µM | 
69 | CCOc1ccc(-c2cc(C(=O)O)c3ccccc3n2)cc1 | inconclusive [inhibitor, partial curve] | 
70 | O=S(=O)(c1ccc(NC(=S)Nc2ccc3c(c2)OCO3)cc1)N1CCOCC1 | inconclusive [inhibitor, single point] | 
71 | CCOc1cc(-c2noc(CCC(=O)N3CCOCC3)n2)ccc1OC |  | inactive: -8.81%
72 | Cc1ccc(C(=O)Nc2ccc3c4c(cccc24)CC3)cc1[N+](=O)[O-] | inconclusive [inhibitor, single point] | 
73 | CCCCCCOc1ccc(C(=O)O)cc1C#N | active: 20 µM | 
74 | Cc1ccc(-c2cc(-c3ccccc3)c3c(N)c(S(C)(=O)=O)sc3n2)cc1 | inconclusive [inhibitor, partial curve] | 
